Data on 4 molecules can be found in article PMC2928299.

The chains behind the UniProt entries cited, without tags or fusion partners. Where a name states a change or a piece, a line headed by the entry shows the natural chain unless it says otherwise.
UniProt P60766: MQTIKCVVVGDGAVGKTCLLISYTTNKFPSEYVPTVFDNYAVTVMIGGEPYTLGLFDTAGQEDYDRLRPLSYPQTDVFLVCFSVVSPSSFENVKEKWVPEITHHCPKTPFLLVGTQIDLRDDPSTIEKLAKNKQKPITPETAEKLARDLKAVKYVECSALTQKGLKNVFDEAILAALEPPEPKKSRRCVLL
UniProt Q9QUI0: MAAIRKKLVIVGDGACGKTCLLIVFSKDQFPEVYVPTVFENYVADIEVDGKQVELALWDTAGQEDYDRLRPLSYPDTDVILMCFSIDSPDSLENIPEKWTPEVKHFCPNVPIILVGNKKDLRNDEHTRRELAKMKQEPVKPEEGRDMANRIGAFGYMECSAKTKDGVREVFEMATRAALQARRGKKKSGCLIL

What all share (experiment): pull-down; streptavidin (SBP) pull-down from lysates of co-transfected 293T cells, SBP-Flag GTPase as bait; beads 1 h at 4°C, 3 washes, elution with 2 mM biotin; immunoblot for Flag
On the technique in general: Immunoblotting shows a protein as a band on a membrane.

The target of assay [1] is SBP-Flag Cdc42(G12V) (mouse) (UniProt P60766).
In assay [2] the target is SBP-Flag RhoA (WT) (mouse) (UniProt Q9QUI0).
Assay [3] concerns the target SBP-Flag RhoA(G14V) (mouse) (UniProt Q9QUI0).
For the next assay, the target named is T1, SBP-Flag Rnd1 (mouse) (UniProt Q8BLR7).
T1 sequence: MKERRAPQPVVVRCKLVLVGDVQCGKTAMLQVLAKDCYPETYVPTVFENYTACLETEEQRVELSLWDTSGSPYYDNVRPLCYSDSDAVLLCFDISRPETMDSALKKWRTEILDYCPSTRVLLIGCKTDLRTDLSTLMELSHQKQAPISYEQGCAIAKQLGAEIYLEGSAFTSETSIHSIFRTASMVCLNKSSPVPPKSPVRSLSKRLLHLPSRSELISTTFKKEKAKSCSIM

The next assay deals with T2, SBP-Flag Rnd3 (mouse) (UniProt P61588).
T2 sequence: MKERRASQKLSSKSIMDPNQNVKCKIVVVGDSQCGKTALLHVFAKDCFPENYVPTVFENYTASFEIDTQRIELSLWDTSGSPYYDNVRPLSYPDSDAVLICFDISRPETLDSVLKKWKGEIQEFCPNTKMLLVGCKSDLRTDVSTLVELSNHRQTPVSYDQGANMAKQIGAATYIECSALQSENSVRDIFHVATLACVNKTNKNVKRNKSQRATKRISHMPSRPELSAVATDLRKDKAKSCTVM

For a further assay, the target named is T3, SBP-Flag Rnd2 (mouse) (UniProt Q9QYM5).
T3 sequence: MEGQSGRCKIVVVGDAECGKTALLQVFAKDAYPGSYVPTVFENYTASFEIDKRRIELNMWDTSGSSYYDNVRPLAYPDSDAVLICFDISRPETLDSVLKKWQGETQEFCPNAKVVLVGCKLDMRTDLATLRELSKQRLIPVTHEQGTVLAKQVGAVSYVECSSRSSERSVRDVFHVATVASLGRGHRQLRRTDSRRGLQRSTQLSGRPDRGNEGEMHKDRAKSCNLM

No constants are given. Whether binding was seen depends on the method and setting. In cells and extracts the contact can be indirect. Some entries that bind do so weakly or less than the wild type. Where a sequence is shown, tags or fusion partners need not be part of it.

B1: Flag-Syx(1–800) (domain or fragment, UniProt Q66T02-1 1-800)
chain: MGTGPGVSGRRAAARPSSELPSPDSQLLWVGGHAHSSDSQVCHHADCQQLHHRGPLNLCETCDSKFHSTLHYDGHVRFDLPPQGSVLARNVSTRSCPPRTSPAADLEEEEEGCTDGKGDRKSAGLKISKKKARRRHTDDPSKECFTLKFDLNVDIETEIVPAMKKKSLGEVLLPVFERKGIALGKVDIYLDQSNTPLSLTFEAYRFGGHYLRVKAKPGDEGKVEQGVKDSKSLSLPALRPSGAGPPVSERVDPQSRRESSLDILAPGRRRKNMSEFLGEAGIPGHEPPAPSSCSLPVGSSGGTSSGINESWKNRAASRFSGFFSSSPSTSAFSREVDKMEQLESKLHAYSLFGLPRMPRRLRFDHDSWEEEEEDDEEDEESSGLRLEDSWRELTDGHEKLTRRQCHQQEAVWELLHTEVSYIRKLRVITNLFLCCLLNLQESGLLCEVEAERLFSNIPEIAKLHRGLWGSVMVPVLEKARRTRALLQPSDFLKGFKMFGSLFKPYIRYCMEEEGCMEYMRGLLRDNDLFRAYVTWAEKHQQCQRLKLSDMLAKPHQRLTKYPLLLKSVLRKTDDPRTKEAIVTMISSVERFIHHVNTCMRQRQERQRLAGVVSRIDAYEVVEGSNDEVDKLLKEFLHLDLTAPMPGTSPEETRQLLLEGSLRMKEGKDSKMDVYCFLFTDLLLVTKAVKKAERTKVIRPPLLVDKIVCRELRDPGSFLLIYLNEFHSAVGAYTFQASSQALCRSWVDTIYNAQNQLQQLRAQLSAQEHPGSQHLQSLEEEEDEQEEEGEESGTSAASSPT
Regarding B1, the binding entry in assay [1] is given as “no binding”; in assay [2] it was “binds”; in assay [3], “binds”; with SBP-Flag Rnd1 (mouse) it was “binds”; with SBP-Flag Rnd3 (mouse), “binds”.

B2: Flag-Syx(1–800) R178E/K179D (domain or fragment, UniProt Q66T02-1 1-800)
chain: MGTGPGVSGRRAAARPSSELPSPDSQLLWVGGHAHSSDSQVCHHADCQQLHHRGPLNLCETCDSKFHSTLHYDGHVRFDLPPQGSVLARNVSTRSCPPRTSPAADLEEEEEGCTDGKGDRKSAGLKISKKKARRRHTDDPSKECFTLKFDLNVDIETEIVPAMKKKSLGEVLLPVFEEDGIALGKVDIYLDQSNTPLSLTFEAYRFGGHYLRVKAKPGDEGKVEQGVKDSKSLSLPALRPSGAGPPVSERVDPQSRRESSLDILAPGRRRKNMSEFLGEAGIPGHEPPAPSSCSLPVGSSGGTSSGINESWKNRAASRFSGFFSSSPSTSAFSREVDKMEQLESKLHAYSLFGLPRMPRRLRFDHDSWEEEEEDDEEDEESSGLRLEDSWRELTDGHEKLTRRQCHQQEAVWELLHTEVSYIRKLRVITNLFLCCLLNLQESGLLCEVEAERLFSNIPEIAKLHRGLWGSVMVPVLEKARRTRALLQPSDFLKGFKMFGSLFKPYIRYCMEEEGCMEYMRGLLRDNDLFRAYVTWAEKHQQCQRLKLSDMLAKPHQRLTKYPLLLKSVLRKTDDPRTKEAIVTMISSVERFIHHVNTCMRQRQERQRLAGVVSRIDAYEVVEGSNDEVDKLLKEFLHLDLTAPMPGTSPEETRQLLLEGSLRMKEGKDSKMDVYCFLFTDLLLVTKAVKKAERTKVIRPPLLVDKIVCRELRDPGSFLLIYLNEFHSAVGAYTFQASSQALCRSWVDTIYNAQNQLQQLRAQLSAQEHPGSQHLQSLEEEEDEQEEEGEESGTSAASSPT
With B2, the binding result in the assay with SBP-Flag Rnd3 (mouse) is “no binding”.

B3: Flag-MyoGEF (protein, UniProt Q8R0J1 1-787)
chain: MQAFGPPNEGPLQGLVASRIETYGGRHQTSAHSTAGNLFPRGGPGVDPSRRRLQHYVPFAKGSGQTRGMSPLVLREPDPEKRHGSYFGVGPPHSPKLKEVTRAHELEIRLHTFSMFGMPRLPPEDRRHWEIGEGGDSALTMEKSWKELVLEHKEMNRQLCHQQEALWELLTTELIYLRKLKIMTDLLAAGLLNLQRVGLLTEVSAETLFGNVPNLIRAHRRFWEEVLQPILEDTRTSGQPLDPVSLQNGFLTFGQRFQPYVQYCLRVKQTMAYAREQQDTNPLFHTFVQWCEKHKRSGRQTLGDLLIKPHQRITKYPLLLQAVRKRSPEPRAQEALNAMIEAVESFLRHINGQVRQGEEQESLMAVAQRIGPYEVLEPSSEEVEKNLRPFSTLDLMTPVLGVAPEYTRQLLLEGPVRVKEGREGKMDVYLFLFSDVLLVTKPQRKADRAKVIRPPLMLEKLVCRPLRDPNSFLLIHLTEFQCVSSALTVHCPSSTERARWLEKTQHAQTTLQKLKGEQYIQQKRELLALYRNQGTESPSTRPSTPSPSPEDSQSSAEGRTLEFAIIPRLVVTEDTDEDTPSMPDDASDSGYGTLIPSSPKDSHSPLNRLRSKALRRDPRLTFSTLELRDVPLRPQPPDPQAPQRRSAPELPEGILRGGSLPRRAPPIWSEEEDETLASGNVVVETLHRAQRRSPLPHSPTHTDSAGESPWESSDEDEGLLSPELRPRSLREDMLREIREELANQRIDGASEPEPGNGKPRRLTLAQLQRMRVPHIIQLDTPLSTSEV
Consider B3, for which the binding result with SBP-Flag Rnd1 (mouse), with SBP-Flag Rnd2 (mouse) and with SBP-Flag Rnd3 (mouse) was “no binding” each time.

B4: Flag-Syx, full length (protein, UniProt Q66T02 1-1073)
chain: MGTGPGVSGRRAAARPSSELPSPDSQLLWVGGHAHSSDSQVCHHADCQQLHHRGPLNLCETCDSKFHSTLHYDGHVRFDLPPQGSVLARNVSTRSCPPRTSPAADLEEEEEGCTDGKGDRKSAGLKISKKKARRRHTDDPSKECFTLKFDLNVDIETEIVPAMKKKSLGEVLLPVFERKGIALGKVDIYLDQSNTPLSLTFEAYRFGGHYLRVKAKPGDEGKVEQGVKDSKSLSLPALRPSGAGPPVSERVDPQSRRESSLDILAPGRRRKNMSEFLGEAGIPGHEPPAPSSCSLPVGSSGGTSSGINESWKNRAASRFSGFFSSSPSTSAFSREVDKMEQLESKLHAYSLFGLPRMPRRLRFDHDSWEEEEEDDEEDEESSGLRLEDSWRELTDGHEKLTRRQCHQQEAVWELLHTEVSYIRKLRVITNLFLCCLLNLQESGLLCEVEAERLFSNIPEIAKLHRGLWGSVMVPVLEKARRTRALLQPSDFLKGFKMFGSLFKPYIRYCMEEEGCMEYMRGLLRDNDLFRAYVTWAEKHQQCQRLKLSDMLAKPHQRLTKYPLLLKSVLRKTDDPRTKEAIVTMISSVERFIHHVNTCMRQRQERQRLAGVVSRIDAYEVVEGSNDEVDKLLKEFLHLDLTAPMPGTSPEETRQLLLEGSLRMKEGKDSKMDVYCFLFTDLLLVTKAVKKAERTKVIRPPLLVDKIVCRELRDPGSFLLIYLNEFHSAVGAYTFQASSQALCRSWVDTIYNAQNQLQQLRAQLSAQEHPGSQHLQSLEEEEDEQEEEGEESGTSAASSPTILRKSSNSLDSEHCTSDGSTETLAMVVVEPGATLSSPEFEGGPVSSQSDESSLSNTASSVTPTSELLPLGPVDGRSCSMDSAYGTLSPTSLQDFVAPHPVVEPAPVPQTPSPQPSPRLRRRTPVQLLPRPPRLLKSKSEASLLQLLSGTPAARGVPPAPSRSLSELCLISVAPGVRTQRPLQEGGPGWNGPGMCDPCHGPQLSESENRPSHMTGGPADSARRRCREMPSGTMSRVQSEPPSGVSAQHRKLTLAQLYRIRTTLLLNSTLTASEV
For B4, the binding entry with SBP-Flag Rnd1 (mouse) was “binds weakly”; in the assay with SBP-Flag Rnd2 (mouse), “binds weakly”; in the assay with SBP-Flag Rnd3 (mouse) it was “binds”.
